Results on 4 molecules are retold here after paper PMC7349898.

The target in one assay is T1, AtIDD14 (Arabidopsis) (UniProt Q9C9X7).
T1 sequence: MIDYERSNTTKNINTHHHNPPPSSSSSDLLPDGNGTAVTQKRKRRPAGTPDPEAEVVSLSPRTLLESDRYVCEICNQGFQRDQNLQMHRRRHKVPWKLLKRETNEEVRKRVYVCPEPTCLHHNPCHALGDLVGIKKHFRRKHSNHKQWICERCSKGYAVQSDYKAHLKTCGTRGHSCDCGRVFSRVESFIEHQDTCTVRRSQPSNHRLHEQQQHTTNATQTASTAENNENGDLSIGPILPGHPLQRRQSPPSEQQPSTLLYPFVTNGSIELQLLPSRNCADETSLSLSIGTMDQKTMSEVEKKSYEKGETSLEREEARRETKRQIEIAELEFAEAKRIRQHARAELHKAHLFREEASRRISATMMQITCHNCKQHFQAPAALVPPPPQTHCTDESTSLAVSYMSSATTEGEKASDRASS
Put plainly: two-hybrid; Gal4 yeast two-hybrid; baits in pGBT9, preys in pGAD424; yeast strain PJ69-4A; serial dilutions spotted on -LW and -LWH with an appropriate concentration of 3-AT; 3 days at 30 °C.

Another assay deals with T2, AtIDD16 (Arabidopsis) (UniProt Q9FRH4).
T2 sequence: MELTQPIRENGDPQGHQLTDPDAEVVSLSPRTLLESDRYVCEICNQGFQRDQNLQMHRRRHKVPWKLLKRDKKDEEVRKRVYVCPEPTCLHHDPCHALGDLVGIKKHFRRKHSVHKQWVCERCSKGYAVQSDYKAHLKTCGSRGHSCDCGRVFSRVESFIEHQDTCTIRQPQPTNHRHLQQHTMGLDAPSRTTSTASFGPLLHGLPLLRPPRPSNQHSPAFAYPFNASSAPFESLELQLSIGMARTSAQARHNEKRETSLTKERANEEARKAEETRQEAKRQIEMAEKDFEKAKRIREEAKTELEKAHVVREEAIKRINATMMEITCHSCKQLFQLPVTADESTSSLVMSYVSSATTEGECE
The assay is described as above.

No constants are given. Whether binding was seen depends on the method and setting.

B1: SLR1 (protein, UniProt Q7G7J6 1-625)
chain: MKREYQEAGGSSGGGSSADMGSCKDKVMAGAAGEEEDVDELLAALGYKVRSSDMADVAQKLEQLEMAMGMGGVSAPGAADDGFVSHLATDTVHYNPSDLSSWVESMLSELNAPLPPIPPAPPAARHASTSSTVTGGGGSGFFELPAAADSSSSTYALRPISLPVVATADPSAADSARDTKRMRTGGGSTSSSSSSSSSLGGGASRGSVVEAAPPATQGAAAANAPAVPVVVVDTQEAGIRLVHALLACAEAVQQENFAAAEALVKQIPTLAASQGGAMRKVAAYFGEALARRVYRFRPADSTLLDAAFADLLHAHFYESCPYLKFAHFTANQAILEAFAGCHRVHVVDFGIKQGMQWPALLQALALRPGGPPSFRLTGVGPPQPDETDALQQVGWKLAQFAHTIRVDFQYRGLVAATLADLEPFMLQPEGEADANEEPEVIAVNSVFELHRLLAQPGALEKVLGTVHAVRPRIVTVVEQEANHNSGSFLDRFTESLHYYSTMFDSLEGGSSGQAELSPPAAGGGGGTDQVMSEVYLGRQICNVVACEGAERTERHETLGQWRNRLGRAGFEPVHLGSNAYKQASTLLALFAGGDGYRVEEKEGCLTLGWHTRPLIATSAWRVAAA
As to B1, the binding result with AtIDD14 (Arabidopsis) and with AtIDD16 (Arabidopsis) was “no binding” each time.

B2: RGA-LIKE 1 (protein, UniProt Q9C8Y3 1-511)
chain: MKREHNHRESSAGEGGSSSMTTVIKEEAAGVDELLVVLGYKVRSSDMADVAHKLEQLEMVLGDGISNLSDETVHYNPSDLSGWVESMLSDLDPTRIQEKPDSEYDLRAIPGSAVYPRDEHVTRRSKRTRIESELSSTRSVVVLDSQETGVRLVHALLACAEAVQQNNLKLADALVKHVGLLASSQAGAMRKVATYFAEGLARRIYRIYPRDDVALSSFSDTLQIHFYESCPYLKFAHFTANQAILEVFATAEKVHVIDLGLNHGLQWPALIQALALRPNGPPDFRLTGIGYSLTDIQEVGWKLGQLASTIGVNFEFKSIALNNLSDLKPEMLDIRPGLESVAVNSVFELHRLLAHPGSIDKFLSTIKSIRPDIMTVVEQEANHNGTVFLDRFTESLHYYSSLFDSLEGPPSQDRVMSELFLGRQILNLVACEGEDRVERHETLNQWRNRFGLGGFKPVSIGSNAYKQASMLLALYAGADGYNVEENEGCLLLGWQTRPLIATSAWRINRVE
As for B2, the binding entry with AtIDD14 (Arabidopsis) and in the assay with AtIDD16 (Arabidopsis) was “no binding” each time.

B3: SHORT-ROOT (protein, UniProt Q9SZF7 1-531)
chain: MDTLFRLVSLQQQQQSDSIITNQSSLSRTSTTTTGSPQTAYHYNFPQNDVVEECFNFFMDEEDLSSSSSHHNHHNHNNPNTYYSPFTTPTQYHPATSSTPSSTAAAAALASPYSSSGHHNDPSAFSIPQTPPSFDFSANAKWADSVLLEAARAFSDKDTARAQQILWTLNELSSPYGDTEQKLASYFLQALFNRMTGSGERCYRTMVTAAATEKTCSFESTRKTVLKFQEVSPWATFGHVAANGAILEAVDGEAKIHIVDISSTFCTQWPTLLEALATRSDDTPHLRLTTVVVANKFVNDQTASHRMMKEIGNRMEKFARLMGVPFKFNIIHHVGDLSEFDLNELDVKPDEVLAINCVGAMHGIASRGSPRDAVISSFRRLRPRIVTVVEEEADLVGEEEGGFDDEFLRGFGECLRWFRVCFESWEESFPRTSNERLMLERAAGRAIVDLVACEPSDSTERRETARKWSRRMRNSGFGAVGYSDEVADDVRALLRRYKEGVWSMVQCPDAAGIFLCWRDQPVVWASAWRPT
Regarding B3, the binding result with AtIDD14 (Arabidopsis) and with AtIDD16 (Arabidopsis) was “no binding” each time.

B4: SCARECROW-LIKE 3 (protein, UniProt Q9LPR8 1-482)
chain: MVAMFQEDNGTSSVASSPLQVFSTMSLNRPTLLASSSPFHCLKDLKPEERGLYLIHLLLTCANHVASGSLQNANAALEQLSHLASPDGDTMQRIAAYFTEALANRILKSWPGLYKALNATQTRTNNVSEEIHVRRLFFEMFPILKVSYLLTNRAILEAMEGEKMVHVIDLDASEPAQWLALLQAFNSRPEGPPHLRITGVHHQKEVLEQMAHRLIEEAEKLDIPFQFNPVVSRLDCLNVEQLRVKTGEALAVSSVLQLHTFLASDDDLMRKNCALRFQNNPSGVDLQRVLMMSHGSAAEARENDMSNNNGYSPSGDSASSLPLPSSGRTDSFLNAIWGLSPKVMVVTEQDSDHNGSTLMERLLESLYTYAALFDCLETKVPRTSQDRIKVEKMLFGEEIKNIISCEGFERRERHEKLEKWSQRIDLAGFGNVPLSYYAMLQARRLLQGCGFDGYRIKEESGCAVICWQDRPLYSVSAWRCRK
For B4, the binding entry with AtIDD14 (Arabidopsis) and with AtIDD16 (Arabidopsis) was “no binding” each time.
